Residue numbers refer to the chain shown, from its start. The list shows a part of the results.
T1: RBFOX1 RRM RbFoxmut (Fox-RRM*) (Homo sapiens, UniProt Q9NWB1 109-208, R118D;E147R;N151S;E152T)
T1 sequence: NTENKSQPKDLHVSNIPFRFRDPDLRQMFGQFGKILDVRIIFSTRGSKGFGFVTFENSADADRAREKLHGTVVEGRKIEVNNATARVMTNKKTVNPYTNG

B1: CUCCCGA (DNA:RNA)
RNA: GGGAGACCGGAAUUCAGAUUGUCCCUCCCGAUUAAAUCCCGUCGUAGCCACCA
DNA 1: CAATCTGAATTCCGGTCTCCC
DNA 2: TGGTGGCTACGACGGGATT
B2: AUUCUUG (DNA:RNA)
RNA: B1 RNA with C25A, C27U, C29U, G30U, A31G
DNA 1: CAATCTGAATTCCGGTCTCCC
DNA 2: TGGTGGCTACGACGGGATT
B3: GUUAGAU (DNA:RNA)
RNA: B1 RNA with C25G, C27U, C28A, C29G, G30A, A31U
DNA 1: CAATCTGAATTCCGGTCTCCC
DNA 2: TGGTGGCTACGACGGGATT
B4: CAACAUU (DNA:RNA)
RNA: B1 RNA with U26A, C27A, C29A, G30U, A31U
DNA 1: CAATCTGAATTCCGGTCTCCC
DNA 2: TGGTGGCTACGACGGGATT
B5: UAUCGAC (DNA:RNA)
RNA: B1 RNA with C25U, U26A, C27U, C29G, G30A, A31C
DNA 1: CAATCTGAATTCCGGTCTCCC
DNA 2: TGGTGGCTACGACGGGATT
B6: AUGGGGA (DNA:RNA)
RNA: B1 RNA with C25A, C27G, C28G, C29G
DNA 1: CAATCTGAATTCCGGTCTCCC
DNA 2: TGGTGGCTACGACGGGATT
B7: ACAAUCC (DNA:RNA)
RNA: GGGAGACCGGAAUUCAGAUUGUCCACAAUCCUUAAAUCCCGUCGUAGCCACCA
DNA 1: CAATCTGAATTCCGGTCTCCC
DNA 2: TGGTGGCTACGACGGGATT
B8: GGAAUGG (DNA:RNA)
RNA: B7 RNA with A25G, C26G, C30G, C31G
DNA 1: CAATCTGAATTCCGGTCTCCC
DNA 2: TGGTGGCTACGACGGGATT
B9: AUUCCCA (DNA:RNA)
RNA: B1 RNA with C25A, C27U, G30C
DNA 1: CAATCTGAATTCCGGTCTCCC
DNA 2: TGGTGGCTACGACGGGATT
B10: GAUAGUG (DNA:RNA)
RNA: B7 RNA with A25G, C26A, A27U, U29G, C30U, C31G
DNA 1: CAATCTGAATTCCGGTCTCCC
DNA 2: TGGTGGCTACGACGGGATT
B11: GAAAUAA (DNA:RNA)
RNA: B7 RNA with A25G, C26A, C30A, C31A
DNA 1: CAATCTGAATTCCGGTCTCCC
DNA 2: TGGTGGCTACGACGGGATT
B12: GGAGACC (DNA:RNA)
RNA: B7 RNA with A25G, C26G, A28G, U29A
DNA 1: CAATCTGAATTCCGGTCTCCC
DNA 2: TGGTGGCTACGACGGGATT
B13: UACCGAG (DNA:RNA)
RNA: B1 RNA with C25U, U26A, C29G, G30A, A31G
DNA 1: CAATCTGAATTCCGGTCTCCC
DNA 2: TGGTGGCTACGACGGGATT
B14: CUAUGGC (DNA:RNA)
RNA: B1 RNA with C27A, C28U, C29G, A31C
DNA 1: CAATCTGAATTCCGGTCTCCC
DNA 2: TGGTGGCTACGACGGGATT
B15: GGUUUGA (DNA:RNA)
RNA: B1 RNA with C25G, U26G, C27U, C28U, C29U
DNA 1: CAATCTGAATTCCGGTCTCCC
DNA 2: TGGTGGCTACGACGGGATT
B16: GGGCCGU (DNA:RNA)
RNA: B1 RNA with C25G, U26G, C27G, A31U
DNA 1: CAATCTGAATTCCGGTCTCCC
DNA 2: TGGTGGCTACGACGGGATT
B17: CCAGAUU (DNA:RNA)
RNA: B7 RNA with A25C, A28G, U29A, C30U, C31U
DNA 1: CAATCTGAATTCCGGTCTCCC
DNA 2: TGGTGGCTACGACGGGATT
B18: GGCAUUC (DNA:RNA)
RNA: B7 RNA with A25G, C26G, A27C, C30U
DNA 1: CAATCTGAATTCCGGTCTCCC
DNA 2: TGGTGGCTACGACGGGATT
B19: UGCCUCG (DNA:RNA)
RNA: B7 RNA with A25U, C26G, A27C, A28C, C31G
DNA 1: CAATCTGAATTCCGGTCTCCC
DNA 2: TGGTGGCTACGACGGGATT
B20: CCGUGUC (DNA:RNA)
RNA: B7 RNA with A25C, A27G, A28U, U29G, C30U
DNA 1: CAATCTGAATTCCGGTCTCCC
DNA 2: TGGTGGCTACGACGGGATT
B21: AUAGUAA (DNA:RNA)
RNA: B7 RNA with C26U, A28G, C30A, C31A
DNA 1: CAATCTGAATTCCGGTCTCCC
DNA 2: TGGTGGCTACGACGGGATT
B22: UACGCGG (DNA:RNA)
RNA: B1 RNA with C25U, U26A, C28G, A31G
DNA 1: CAATCTGAATTCCGGTCTCCC
DNA 2: TGGTGGCTACGACGGGATT
B23: GCCAGAA (DNA:RNA)
RNA: B7 RNA with A25G, A27C, U29G, C30A, C31A
DNA 1: CAATCTGAATTCCGGTCTCCC
DNA 2: TGGTGGCTACGACGGGATT
B24: GCACGCA (DNA:RNA)
RNA: B7 RNA with A25G, A28C, U29G, C31A
DNA 1: CAATCTGAATTCCGGTCTCCC
DNA 2: TGGTGGCTACGACGGGATT
B25: AUUUAUU (DNA:RNA)
RNA: B7 RNA with C26U, A27U, A28U, U29A, C30U, C31U
DNA 1: CAATCTGAATTCCGGTCTCCC
DNA 2: TGGTGGCTACGACGGGATT
B26: CUCACCG (DNA:RNA)
RNA: B1 RNA with C28A, G30C, A31G
DNA 1: CAATCTGAATTCCGGTCTCCC
DNA 2: TGGTGGCTACGACGGGATT
B27: GCCAAAG (DNA:RNA)
RNA: B7 RNA with A25G, A27C, U29A, C30A, C31G
DNA 1: CAATCTGAATTCCGGTCTCCC
DNA 2: TGGTGGCTACGACGGGATT
B28: CGGCCGU (DNA:RNA)
RNA: B1 RNA with U26G, C27G, A31U
DNA 1: CAATCTGAATTCCGGTCTCCC
DNA 2: TGGTGGCTACGACGGGATT
B29: GUUGGAG (DNA:RNA)
RNA: B1 RNA with C25G, C27U, C28G, C29G, G30A, A31G
DNA 1: CAATCTGAATTCCGGTCTCCC
DNA 2: TGGTGGCTACGACGGGATT
B30: CGGCAGG (DNA:RNA)
RNA: B1 RNA with U26G, C27G, C29A, A31G
DNA 1: CAATCTGAATTCCGGTCTCCC
DNA 2: TGGTGGCTACGACGGGATT
B31: ACAUGGG (DNA:RNA)
RNA: B7 RNA with A28U, U29G, C30G, C31G
DNA 1: CAATCTGAATTCCGGTCTCCC
DNA 2: TGGTGGCTACGACGGGATT

Target: T1, RBFOX1 RRM RbFoxmut (Fox-RRM*)
Test: EMSA; HiTS-Eq, 1 nM pool, 10 min; buffer printed only for the single-RNA assays: 10 mM Tris pH 7.5, 150 mM NaCl, 3.4 mM EDTA, 0.001% NP-40, 30 C
Conditions: tags: His6 N-terminal (pET28a); label: 5' 32P
Summary of the method: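 A pool of RNA with 7 randomized nucleotides, 5′-radiolabelled and with DNA-annealed flanks, was equilibrated at 1 nM for 10 min in 50 µL with purified RbFox RRM, wild type or mutant, across increasing protein concentrations. Free RNA was separated by 8% native PAGE, excised, reverse-transcribed, barcoded by PCR and sequenced. Relative association constants were obtained from read-count changes of each RNA species versus the control reaction and normalised to the cognate motif.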

Row | Binder | binding signal
1 | B1 | 0.036 KA relative to UGCAUGU
2 | B2 | 0.125 KA relative to UGCAUGU
3 | B3 | 0.131 KA relative to UGCAUGU
4 | B4 | 0.0738 KA relative to UGCAUGU
5 | B5 | 0.0663 KA relative to UGCAUGU
6 | B6 | 0.12 KA relative to UGCAUGU
7 | B7 | 0.0642 KA relative to UGCAUGU
8 | B8 | 0.724 KA relative to UGCAUGU
9 | B9 | 0.0559 KA relative to UGCAUGU
10 | B10 | 0.126 KA relative to UGCAUGU
11 | B11 | 0.0767 KA relative to UGCAUGU
12 | B12 | 0.0796 KA relative to UGCAUGU
13 | B13 | 0.0833 KA relative to UGCAUGU
14 | B14 | 0.103 KA relative to UGCAUGU
15 | B15 | 0.293 KA relative to UGCAUGU
16 | B16 | 0.134 KA relative to UGCAUGU

Row | Binder | binding signal
17 | B17 | 0.0808 KA relative to UGCAUGU
18 | B18 | 0.119 KA relative to UGCAUGU
19 | B19 | 0.294 KA relative to UGCAUGU
20 | B20 | 0.179 KA relative to UGCAUGU
21 | B21 | 0.118 KA relative to UGCAUGU
22 | B22 | 0.0775 KA relative to UGCAUGU
23 | B23 | 0.0878 KA relative to UGCAUGU
24 | B24 | 0.214 KA relative to UGCAUGU
25 | B25 | 0.152 KA relative to UGCAUGU
26 | B26 | 0.0937 KA relative to UGCAUGU
27 | B27 | 0.092 KA relative to UGCAUGU
28 | B28 | 0.0918 KA relative to UGCAUGU
29 | B29 | 0.118 KA relative to UGCAUGU
30 | B30 | 0.0879 KA relative to UGCAUGU
31 | B31 | 0.0899 KA relative to UGCAUGU

— PMC9911399, “Two distinct binding modes provide the RNA-binding protein RbFox with extraordinary sequence specificity”
